# Experimental data from PubChem BioAssay AID493208 (National Center for Advancing Translational Sciences (NCATS), 2011).
# Screen size: about 44,000 compounds; about 340 (0.77%) were called active. About 5% were inconclusive and are not listed. The call rests on the fitted dose curve; in most records, active means well fitted inhibition curve with a large enough effect; inconclusive means small, poorly fitted or top-dose-only effect; inactive means flat fitted curve, though single readings scatter. This is one part of the list.
# Test: Acumen qHTS Assay for Inhibitors of the mTORC1 Signaling Pathway in MEF (Tsc2-/-, p53-/-) Cells: Sytravon; further: nearly all actives have a fitted effect of over 50% in size;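 on activity change, negative = inhibition: plate controls were DMSO for no effect and rapamycin for full effect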
# Conditions: phospho-rpS6 immunofluorescence/PI, 24 h; series mostly up to 38.3 µM; activity change, negative = inhibition: at the top concentration
# Outline: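 Tsc2-/-, p53-/- mouse embryonic fibroblasts (empty-vector line) exposed to compound 24 hrs at 37 C, fixed, immunostained for phospho-rpS6 and counterstained with propidium iodide. Acumen laser scanning gives % positive cells from Alexa 488/PI ratio, thresholded using 7.5 nM rapamycin; PI count gives viability.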
# Potency means the concentration at half of the fitted maximal effect.
Structure (SMILES),"activity change, negative = inhibition",Potency
COc1cccc(CNC(=O)CCc2c(C)c3ccc(O)c(C)c3oc2=O)c1,inactive: -3.39%,
Cc1ccc(OCCOCCn2c(-c3ccc(Cl)cc3)nc3ccccc3c2=O)cc1,inactive: 2.96%,
CCCCN(CC)CCCNC(=O)c1ccc2c(c1)NC(=O)CN2C,inactive: 7.58%,
COc1ccc2c(c1)CCc1c(C(=O)Nc3ccc(C#N)cc3)noc1-2,inactive: -6.96%,
COc1ccc(-n2c(SCc3ccccc3)nc3c([nH]c4ccccc43)c2=O)cc1,inactive: 1.26%,
COc1cccc(CNC(=O)Cn2nc(N3CCN(c4ccccc4OC)CC3)ccc2=O)c1,inactive: -9.99%,
COc1ccc(C)cc1NC(=O)CN1C(=O)COc2ccc(S(=O)(=O)N3CCC(C)CC3)cc21,inactive: -1.34%,
Cc1c(Cl)cccc1NC(=O)C(C)n1c(=O)cc(C)c2c(C)nn(-c3ccccc3)c21 (centres undefined),inactive: -1.43%,
CCOc1ccc(-n2c(=O)c3c(C)c(C)sc3n(Cc3ccccc3C)c2=O)cc1,inactive: 2.52%,
CCCCc1nnc(SCc2cc(=O)c3cc(F)ccc3[nH]2)n1C,inactive: 2.84%,
COc1ccc(-c2cc(C(F)(F)F)nc(SCCC(=O)Nc3ccc(OC)c(OC)c3)n2)cc1,inactive: -18.2%,
Cc1ccc(NC(=O)c2sc3nc(-c4cccs4)ccc3c2N)cc1F,inactive: -0.964%,
CCN(CC)C(=O)c1c(NC(=O)c2cccc(C)c2)sc2c1CCC(C)C2 (centres undefined),inactive: -7.63%,
CC(C)(C)NC(=O)C1CCN(c2nc3ccccc3nc2C(F)(F)F)CC1,inactive: -6.73%,
COc1ccc(CNC(=O)CN2C(=O)CC(c3ccc(C)c(C)c3)=Nc3ccccc32)cc1,inactive: 3.1%,
COc1ccc(C(=O)NCCn2cc(SCc3c(F)cccc3Cl)c3ccccc32)cc1,inactive: -13.5%,
Cc1ccc(-n2ncc3c(NC4CCCCCC4)ncnc32)cc1,inactive: 13.6%,
O=c1[nH]c2cc(Br)ccc2n2cccc12,inactive: -6.49%,
Cc1cc(C)c(-c2n[nH]c3c2C(c2ccccc2F)N(Cc2ccco2)C3=O)c(O)c1 (centres undefined),,active: 13.1 µM
O=C(c1cnc(N2CCOCC2)c2ccccc12)N1CCN(c2ccccc2)CC1,inactive: -4.15%,
COc1cc(NC(=O)N2CCc3c(sc4c3CCCC4)C2c2ccccc2)cc(OC)c1OC (centres undefined),inactive: 0%,
O=C(CN1C(=O)COc2ccc(S(=O)(=O)NC3CCCC3)cc21)NCc1ccc(Cl)cc1,inactive: -0.948%,
CCOc1ccc(CNC(=O)CSc2nnc(C)c3c(C)n(-c4ccc(Cl)cc4)nc23)cc1,inactive: -0.0425%,
CCN(CC)CCSc1c(C(C)C)cnc2c1c(=O)n(C)c(=O)n2C,inactive: 8%,
COc1ccc(OC)c2sc(N3CCN(C(=O)c4ccco4)CC3)nc12,inactive: -3.69%,

Structure (SMILES),"activity change, negative = inhibition",Potency
CN1CCN(C(=O)C(=O)Nc2c3c(nn2-c2ccc(Cl)cc2)CSC3)CC1,inactive: 0.281%,
CCOCCCn1c(=N)c(C(=O)NCc2cccnc2)cc2c(=O)n3ccccc3nc21,inactive: -11.9%,
CCN(CC)C(=O)c1ccc2c(c1)N(Cc1ccc(C(F)(F)F)cc1)C(=O)c1ccccc1S2,inactive: 2.94%,
Cc1ccc(N2C(=O)CCSC23C(=O)N(Cc2ccccc2)c2ccccc23)cc1 (centres undefined),inactive: 3.69%,
Cc1nn2c(=O)cc(COC(=O)c3cccc(NC(=O)COc4ccccc4C)c3)nc2s1,inactive: 0%,
Cn1c(=O)c(C(=O)O)nn(-c2ccccc2)c1=O,inactive: 11.1%,
CCC(=O)NCCc1nc2cc(NC(=O)c3cccc(Br)c3)ccc2n1C,inactive: -11.3%,
Cc1ccc(NC(=O)Nc2nnc(N3CCCC3)s2)cc1C,inactive: 0.0809%,
COC(=O)c1ccc(C(=O)OC)c(NC(=O)CN(c2ccccc2)S(=O)(=O)N(C)C)c1,inactive: -13%,
COc1cccc(CNC(=O)CSC2=Nc3ccccc3N=C(c3ccc(F)cc3)C2)c1,inactive: -2.99%,
CCOc1ccccc1CNC(=O)C1CCCN(c2nnc(C)c3c(C)n(-c4ccccc4)nc23)C1 (centres undefined),inactive: -13%,
COc1ccc(Nc2ncnc3sc4c(c23)CCCC4)cc1,inactive: 7.27%,
CCOC(=O)C1CCN(C(=O)Cn2nc(CC)n3c(cc4sccc43)c2=O)CC1,inactive: -0.421%,
O=C(NCc1ccccc1Cl)c1ccc(CS(=O)(=O)c2ccc(Br)cc2)o1,inactive: 6.75%,
Cc1c(CNC2CCCCC2)c(C(=O)O)c(C)n1Cc1ccc(Cl)cc1,inactive: 2.84%,
Cc1ccc(Cn2c3ccccc3c3cnn(CC(=O)Nc4cc(Cl)ccc4C)c(=O)c32)cc1,inactive: -5.57%,
CCN(CC)S(=O)(=O)c1ccc2c(c1)N(CC(=O)N1CCN(c3cccc(C)c3C)CC1)C(=O)CO2,inactive: -14.8%,
Cc1cc(C)c(NC(=O)Cn2c(=O)n(CCC(=O)N3CCc4ccccc4C3)c(=O)c3ccccc32)c(C)c1,inactive: -2.34%,
CCc1nn(CCCC(=O)NCc2ccc(OC(C)C)cc2)c(=O)c2cc3occc3n12,inactive: -15%,
O=C(CSc1n[nH]c(-c2ccccc2Cl)n1)NCCc1ccccc1,inactive: 4.91%,
COc1ccc(N2CCN(C(=O)c3cccn3-c3nnc(N4CCCC4)s3)CC2)cc1,inactive: -5.39%,
CCOc1cc(CNS(=O)(=O)c2ccc3c(c2)C(C)(C)C(=O)N3)cc(OCC)c1OCC,inactive: 0%,
CC(NC(=O)Cn1ccc2cc(S(=O)(=O)N3CCCCCC3)ccc21)c1ccccc1 (centres undefined),inactive: -9.93%,
COc1ccc(C)cc1NC(=O)Nc1nnc(N2CCCCC2)s1,inactive: 4.15%,
